{"source": "the supplement of paper PMC3334620", "note": "In all, about 33,000 sequences were measured (“E-score (-0.5 to 0.5)”: median about -0.012, highest 2% from about 0.27 on). This is one part of the list."}
{"target": "T1, Vhr1 (UniProt P40522)", "T1 sequence": "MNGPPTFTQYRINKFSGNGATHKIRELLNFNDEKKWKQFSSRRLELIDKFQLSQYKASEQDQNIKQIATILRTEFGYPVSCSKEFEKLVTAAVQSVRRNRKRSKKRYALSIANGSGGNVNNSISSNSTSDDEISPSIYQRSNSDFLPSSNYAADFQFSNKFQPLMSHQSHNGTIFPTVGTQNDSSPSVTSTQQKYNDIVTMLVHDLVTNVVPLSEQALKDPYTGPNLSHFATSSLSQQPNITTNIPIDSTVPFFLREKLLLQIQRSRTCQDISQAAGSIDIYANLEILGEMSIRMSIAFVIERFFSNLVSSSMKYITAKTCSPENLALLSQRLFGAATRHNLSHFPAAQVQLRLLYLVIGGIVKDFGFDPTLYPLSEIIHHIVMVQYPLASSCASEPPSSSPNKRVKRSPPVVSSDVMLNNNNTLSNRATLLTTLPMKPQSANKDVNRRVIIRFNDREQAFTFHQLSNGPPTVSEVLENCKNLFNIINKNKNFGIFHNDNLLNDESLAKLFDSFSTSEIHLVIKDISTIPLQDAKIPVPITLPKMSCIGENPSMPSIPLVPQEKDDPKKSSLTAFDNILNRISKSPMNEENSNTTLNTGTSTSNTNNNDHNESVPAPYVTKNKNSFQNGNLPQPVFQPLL", "test": "PBM E-score (8-mer binding enrichment) (E-score (-0.5 to 0.5)); higher = stronger / more preferred TF binding; most listed sequences are background and not binding sites", "conditions": "protein concentration: 200 nM; construct: GST-full length", "procedure,_shortened": "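E-scores (a modified Wilcoxon-Mann-Whitney statistic) were assigned by the Universal PBM Analysis Suite to every ungapped eight-base word pooled with its reverse complement. The input came from universal all-10-mer Agilent arrays made double-stranded by primer extension and probed with GST-tagged yeast transcription factors at about 100-200 nM. Fluorescent anti-GST detected bound protein, and masliner normalised the scans.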"}
{"sequence": "TCTATGAA", "PBM E-score": -0.117}
{"sequence": "ACATTCCA", "PBM E-score": -0.0573}
{"sequence": "TGCTTCAA", "PBM E-score": -0.245}
{"sequence": "AGGCCGCC", "PBM E-score": -0.138}
{"sequence": "ACCGGCCA", "PBM E-score": -0.0884}
{"sequence": "GAGATCCC", "PBM E-score": 0.0278}
{"sequence": "AATGGATC", "PBM E-score": -0.0227}
{"sequence": "GAGATAAA", "PBM E-score": -0.0981}
{"sequence": "ACCTCAGA", "PBM E-score": -0.108}
{"sequence": "AGGCAGTG", "PBM E-score": 0.0426}
{"sequence": "ACCTCTCG", "PBM E-score": -0.0212}
{"sequence": "ATGTAGCG", "PBM E-score": -0.0682}
{"sequence": "ATAGAGGA", "PBM E-score": -0.238}
{"sequence": "CGCGAGAG", "PBM E-score": -0.135}
{"sequence": "ACGGAAAA", "PBM E-score": -0.222}
{"sequence": "AACCGGAC", "PBM E-score": 0.00415}
{"sequence": "ATGGTCAC", "PBM E-score": 0.103}
{"sequence": "AGTCACAT", "PBM E-score": 0.402}
{"sequence": "TGTGGTAA", "PBM E-score": 0.00846}
{"sequence": "CTCACAAC", "PBM E-score": 0.0847}
{"sequence": "TAATCGGA", "PBM E-score": -0.00772}
{"sequence": "ATCCTCGA", "PBM E-score": 0.0391}
{"sequence": "CGTTAAGA", "PBM E-score": -0.223}
{"sequence": "CTAACTAG", "PBM E-score": 0.0331}
{"sequence": "GCGTCGAA", "PBM E-score": 0.204}
{"sequence": "CCTGCGAA", "PBM E-score": 0.0952}
{"sequence": "CAGCAGAA", "PBM E-score": 0.132}
{"sequence": "CCCATCCC", "PBM E-score": 0.0993}
{"sequence": "CGCATGAA", "PBM E-score": 0.142}
{"sequence": "AGAAGAAC", "PBM E-score": -0.0515}
{"sequence": "AATGTATC", "PBM E-score": 0.153}
{"sequence": "CACACACA", "PBM E-score": 0.276}
{"sequence": "AGGCACAT", "PBM E-score": 0.0884}
{"sequence": "CTACACGA", "PBM E-score": 0.169}
{"sequence": "AAACATCC", "PBM E-score": 0.0341}
{"sequence": "ATGGCAAA", "PBM E-score": -0.176}
{"sequence": "AACATGAG", "PBM E-score": 0.182}
{"sequence": "ACAACCAG", "PBM E-score": 0.066}
{"sequence": "ATGTACCC", "PBM E-score": 0.0694}
{"sequence": "CAAGTGAG", "PBM E-score": -0.121}
{"sequence": "AATAGAGT", "PBM E-score": -0.168}
{"sequence": "CAATGTAA", "PBM E-score": 0.0481}
{"sequence": "TAAAACGA", "PBM E-score": -0.196}
{"sequence": "TCCCGTCA", "PBM E-score": -0.168}
{"sequence": "CTCCACAG", "PBM E-score": -0.118}
{"sequence": "AATGTCTG", "PBM E-score": -0.114}
{"sequence": "AATCGAGG", "PBM E-score": 0.0694}
{"sequence": "CGCGATGA", "PBM E-score": 0.241}
{"sequence": "AAAACCGA", "PBM E-score": -0.0854}
{"sequence": "AGCAGGGA", "PBM E-score": -0.0538}
{"sequence": "ATTAATCA", "PBM E-score": 0.217}
{"sequence": "TCATGACA", "PBM E-score": 0.209}
{"sequence": "GAACGACC", "PBM E-score": -0.107}
{"sequence": "CCTGAAGA", "PBM E-score": -0.0556}
{"sequence": "CCAAACAA", "PBM E-score": -0.00796}
{"sequence": "ACACCATG", "PBM E-score": 0.212}
{"sequence": "ACGAATAC", "PBM E-score": 0.0945}
{"sequence": "AATACGGC", "PBM E-score": 0.156}
{"sequence": "AGTTGTGA", "PBM E-score": 0.112}
{"sequence": "GGAAACAA", "PBM E-score": -0.108}
{"sequence": "TAGATTAA", "PBM E-score": -0.026}
{"sequence": "CCCCTGTA", "PBM E-score": 0.0333}
{"sequence": "CAATCAAA", "PBM E-score": -0.008}
{"sequence": "AACAATCC", "PBM E-score": 0.21}
{"sequence": "ACACTAAT", "PBM E-score": 0.165}
{"sequence": "CGGCTGTC", "PBM E-score": -0.116}
{"sequence": "CCCGGCTC", "PBM E-score": -0.0335}
{"sequence": "CGAGCGTC", "PBM E-score": -0.176}
{"sequence": "CCTTCGAA", "PBM E-score": -0.198}
{"sequence": "AGACTCTA", "PBM E-score": -0.0431}
{"sequence": "CCGCCCGC", "PBM E-score": 0.173}
{"sequence": "ATTATTGC", "PBM E-score": -0.0063}
{"sequence": "CCTTGTAA", "PBM E-score": -0.068}
{"sequence": "AAGCCTCG", "PBM E-score": 0.00094}
{"sequence": "GATCAGAC", "PBM E-score": -0.163}
{"sequence": "ACGGCAGT", "PBM E-score": -0.0959}
{"sequence": "CAGCTGAC", "PBM E-score": 0.187}
{"sequence": "CACACTCG", "PBM E-score": 0.224}
{"sequence": "CTATCGGC", "PBM E-score": -0.0658}
{"sequence": "CGTTGTGC", "PBM E-score": -0.0841}
{"sequence": "AAGGCGAC", "PBM E-score": -0.132}
{"sequence": "GAGATATA", "PBM E-score": -0.00259}
{"sequence": "ATTCCTTC", "PBM E-score": 0.0252}
{"sequence": "CACGTCGC", "PBM E-score": -0.188}
{"sequence": "GCAGGAGC", "PBM E-score": -0.121}
{"sequence": "ATCCACAA", "PBM E-score": -0.065}
